# Out of some 310,000 compounds screened, about 18,000 (5.8%) were called active. The shares of active, inactive and inconclusive entries below differ from those in the screen. Calls come from the whole dose curve; as a rule, active = well fitted inhibition curve with a large enough effect; inconclusive = small, poorly fitted or top-dose-only effect, or another doubt; inactive = no such curve, though single readings can be large or run the other way. Potencies of inconclusive entries are left out as doubtful fits.
# Test: Primary qHTS for delayed death inhibitors of the malarial parasite plastid, 48 hour incubation
# Conditions: P. falciparum luciferase growth in erythrocytes; series mostly up to 28.7 µM; activity change, negative = inhibition: at the top concentration
# Method in brief: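 Parasite viability was followed by luminescence of a genomically integrated firefly luciferase. Cultures held 0.1% parasitemia at 2% hematocrit (final), incubated under 5% CO2 at 37 C.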
# % is set by controls: 0 for no effect and ±100 for the full control effect; potency is the fitted concentration of half-maximal effect; tags give direction and shape of the fitted curve.
Structure (SMILES),Potency,"activity change, negative = inhibition"
Cc1ccc(S(=O)(=O)N(Cc2ccc(F)cc2)C(=O)N2CCN(C)CC2)cc1,"inconclusive [inhibitor, single point]",
COc1ccc(C(=O)c2ccc(Br)cc2)c2ccccc12,,inactive: 5.06%
CN(CC(O)COc1ccc2ccccc2c1)C1CCCCC1 (configuration not stated),"inconclusive [inhibitor, single point]",
O=c1c2ccccc2c(C=Nc2cccc(S(=O)(=O)NCc3ccco3)c2)c(O)n1-c1ccc(Cl)cn1,active: 14.7 µM,
CN(C)CCN(Cc1ccc(Cl)cc1)c1ccccn1,"inconclusive [inhibitor, single point]",
O=C(c1cc(=O)[nH]c2ccccc12)N1CCN(c2ccc([N+](=O)[O-])cc2)CC1,"inconclusive [inhibitor, single point]",
O=C(c1cc(COc2cccc3cnccc23)on1)N1CCC(c2ccccc2Cl)C1 (configuration not stated),"inconclusive [inhibitor, single point]",
Cc1cccc(C(=O)NC2C(=O)NNC2c2ccc(Cl)cc2)c1 (configuration not stated),,inactive: -7.73%
O=c1cc(-c2ccccc2)cc(-c2ccccc2)n1CCCO,active: 9.28 µM,
COc1ccc(CCN2CC(C(=O)Nc3nnc(Cc4ccccc4)s3)CC2=O)cc1OC (configuration not stated),"inconclusive [inhibitor, single point]",
O=C(COC(=O)c1ccc(O)cc1)Nc1cccc(S(=O)(=O)NC2=NCCCCC2)c1,"inconclusive [inhibitor, partial curve]",
CCn1c(CNC(=O)c2ccccc2F)cc2cc(C)ccc21,"inconclusive [inhibitor, single point]",
COc1ccc(O[C@H]2C=C[C@@H](c3ccccc3)O[C@@H]2CO/N=C(\C)CCN2CCCCc3nc(C)c(C)cc32)cc1,active: 1.65 µM,
COCCCn1c(=O)c2ccccc2n(CC(=O)NCCC2=CCCCC2)c1=O,"inconclusive [inhibitor, partial curve, poor fit]",
COc1cccc(Cn2cnc3c(NS(=O)(=O)c4ccc(Cl)cc4)c(C)c(C)cc32)c1,active: 13.1 µM,
Cc1ccc2nc(C)cc(C(=O)OCC(=O)Nc3cccnc3Cl)c2c1,"inconclusive [inhibitor, single point]",
Cc1cc2cc(CN(Cc3ccco3)S(=O)(=O)c3c(C)ccc4nsnc34)c(=O)[nH]c2cc1C,"inconclusive [inhibitor, single point]",
N#CCNC(=O)c1cccn1-c1ncc(C(F)(F)F)cc1Cl,"inconclusive [inhibitor, single point]",
CCOc1ccccc1C(=O)Nc1nnc(SCC(=O)N2CCOCC2)s1,"inconclusive [inhibitor, single point]",
CC(C)Nc1ncnc2ccc(Br)cc12,"inconclusive [inhibitor, single point]",
CC(NCC(O)c1ccc([N+](=O)[O-])cc1)C12CC3CC(CC(C3)C1)C2 (configuration not stated),"inconclusive [inhibitor, full curve, poor fit]",
COc1ccccc1N1CCN(C(=O)CCNS(=O)(=O)c2cc(Br)cnc2N)CC1,"inconclusive [inhibitor, single point]",
Cc1ccc(NC(=O)C2C3CC4OC(=O)C2C4C3)cc1Cl (configuration not stated),,inactive: 7.89%

Structure (SMILES),Potency,"activity change, negative = inhibition"
Cc1c(CCO)c(=O)[nH]n1S(=O)(=O)c1ccc([N+](=O)[O-])cc1,,inactive: 2.86%
CC1CCN(c2ccccc2NC(=O)c2ccc(C#N)cc2F)CC1,"inconclusive [inhibitor, single point]",
COc1ccc(CN(Cc2ccc(C(=O)O)cc2)C(=S)Nc2cc(C)cc(C)c2)cc1OC,"inconclusive [inhibitor, partial curve, poor fit]",
C/C(=N\NC(=O)c1cccc(N/N=C(\C)c2ccncc2)c1)c1ccncc1,"inconclusive [inhibitor, partial curve]",
CCC1(CC)Cc2ccccc2C(=C(C#N)C#N)N1,"inconclusive [inhibitor, full curve, poor fit]",
CCOC(=O)N1CCN(C(=O)c2cnn3c(C)c(Cc4ccc(C)cc4)c(C)nc23)CC1,"inconclusive [inhibitor, partial curve]",
COc1cc([C@H]2c3[nH]c4ccccc4c3C[C@H]3C(=O)N4[C@@H](c5cc(OC)c(OC)c(OC)c5)c5[nH]c6ccccc6c5C[C@H]4C(=O)N23)cc(OC)c1OC,active: 0.415 µM,
Cc1ccc(C(C)C)c(OCC(=O)Nc2ccc(N3CCOCC3)cc2N2CCOCC2)c1,"inconclusive [inhibitor, partial curve]",
C[C@@H](CNC1CCCCC1)OC(=O)c1ccccc1,active: 2.03 µM,
O=C(NCc1ccc(F)cc1)C1CCN(S(=O)(=O)c2ccc3c(c2)OCCCO3)CC1,,inactive: -8.49%
COc1ccc(C(=O)NNC(=O)C(Cc2ccc(O)cc2)NC(=O)c2ccccc2NC(=O)c2ccc(OC)cc2)cc1 (configuration not stated),"inconclusive [inhibitor, single point]",
NC(=O)C1CCN(c2nc(-c3ccc4c(c3)OCO4)cs2)CC1,"inconclusive [activator, partial curve, poor fit]",
CSc1ccc(CN(C)C(=O)C2CCN(C(=O)Nc3ccccc3)CC2)cc1,"inconclusive [inhibitor, partial curve]",
NS(=O)(=O)c1ccc(CCNc2ccnc3cc(Cl)ccc23)cc1,active: 11.7 µM,
O=C(c1cc2ccccc2cc1O)N1CCN(c2cccc(Cl)c2)CC1,"inconclusive [inhibitor, single point]",
COc1ccc2[nH]c(=O)c(CN(Cc3ccccc3OC)Cc3nnnn3CC3CCCO3)cc2c1 (configuration not stated),"inconclusive [inhibitor, partial curve, poor fit]",
CCCC1S/C(=N/N=C/c2ccc(C)cc2)N(Cc2ccc(OC)cc2)C1=O (configuration not stated),active: 4.15 µM,
NC(=S)NN=C1c2cc(OCCN3CCOCC3)ccc2-c2ccc(OCCN3CCOCC3)cc21,active: 3.29 µM,
COc1ccc(NC(=O)CN2C(=O)NC(C)(c3ccc(C)cc3)C2=O)c([N+](=O)[O-])c1 (configuration not stated),,inactive: 13.5%
COc1ccc(NC(=O)CCNC(=O)c2ccco2)c(OC)c1,,inactive: 9.27%
COc1ccccc1NC(=S)NC(NC(=O)c1ccco1)C(Cl)(Cl)Cl (configuration not stated),"inconclusive [inhibitor, single point]",
Cc1ccc(CN2CC(C(=O)Nc3ccc(F)c([N+](=O)[O-])c3)CC2=O)cc1 (configuration not stated),,inactive: -21.6%
NC(=O)c1ccc(NC(=O)COc2ccc(-n3cnnn3)cc2)cc1,"inconclusive [inhibitor, single point]",

Structure (SMILES),Potency,"activity change, negative = inhibition"
O=C(NCC1CCCCC1)c1cc2ccccc2cc1O,active: 1.31 µM,
CC(C)(C)n1nc2c(c1NC(=O)c1cc3ccccc3o1)CSC2,"inconclusive [inhibitor, full curve, poor fit]",
CCn1c(O)c(C=NCCN2CCOCC2)c(=O)n(CC)c1=S,"inconclusive [inhibitor, single point]",
O=C(CSc1nc(-c2ccco2)cc(C(F)(F)F)n1)NCC1CCCO1 (configuration not stated),"inconclusive [inhibitor, single point]",
O=C(Nc1cc(S(=O)(=O)Nc2ccc(Cl)cc2)ccc1N1CCCCC1)c1ccc(F)cc1Cl,"inconclusive [inhibitor, single point]",
Cc1ccsc1C(=O)C1CCCN(Cc2cnc(N3CCCC3)s2)C1 (configuration not stated),,inactive: -4.28%
COCCCN1C(=O)C(=O)/C(=C(/O)c2ccc(S(=O)(=O)N3CCCCC3)cc2)C1c1ccc(F)cc1 (configuration not stated),,inactive: -23.8%
COC(=O)C1CN(C(=O)c2cccc(OC(F)F)c2)c2ccccc2O1 (configuration not stated),"inconclusive [inhibitor, single point]",
C=CCc1ccc(O)c(-c2cc(CC=C)ccc2O)c1,"inconclusive [inhibitor, partial curve, poor fit]",
CCN(CC(=O)Nc1ccc(C(C)=O)cc1)CC(=O)Nc1ccccc1C(F)(F)F,,inactive: 8.98%
Cc1ccccc1OCCn1cc(C=O)c2ccccc21,"inconclusive [inhibitor, full curve, poor fit]",
O=C(NC1CC1)C1=C[C@@H](c2coc3ccccc3c2=O)C[C@@H](OCCCCO)O1,,inactive: -14.4%
COc1c(Cl)cc(Cl)cc1C(=O)Nc1ccc(NC(=O)c2cccs2)cc1,active: 9.28 µM,
CCOC(=O)[C@H]1[C@H]2COc3ccc(Cl)cc3[C@@H]2N2C(=O)c3ccc(F)cc3NC(=O)[C@@]12C,active: 11.7 µM,
Cc1ccc(C(=O)N2CCN(c3ccc(N4CCOCC4)nn3)CC2)cc1,"inconclusive [inhibitor, single point]",
Cc1cccc(C)c1NC(=O)N1CCC(C(=O)c2ccc(F)cc2)CC1,,inactive: -9.34%
CNc1nc(Cl)nc(NC(C)(C)C)n1,,inactive: 9.87%
COCCNC(=O)c1ccccc1NC(=O)c1ccc(Cl)c(S(=O)(=O)Nc2ccc(C)cc2C)c1,"inconclusive [inhibitor, single point]",
COC(=O)c1[nH]c2ccccc2c1NC(=O)c1ccccc1[N+](=O)[O-],,inactive: 12%
N=c1c2c(-c3ccccc3)c(-c3ccccc3)oc2ncn1Cc1ccco1,"inconclusive [inhibitor, single point]",
Nc1nonc1-n1nnc(C(=O)N/N=C/c2cc(Br)cs2)c1-c1ccccc1,"inconclusive [inhibitor, full curve]",

# Source: PubChem BioAssay AID504832 (National Center for Advancing Translational Sciences (NCATS), 2011)
